In all, about 150,000 compounds went through this assay and about 540 (0.36%) showed an effect of 50% or more. The list shows a part of the results.

The subject of the test is Plasmodium falciparum. Put plainly: Primary screen in NF54 nanoGlo assay, in single point, at 2uM, 72h; a lower Z score goes with more inhibition. Type of test: functional, Erythrocyte. As to conditions: timepoint 72 hour.
By % Inhibition is commonly meant the relative decrease from the control value, in per cent. Regarding `Cc1ccccc1Cn1nnc2cc(C(=O)N3CCCCC3)ccc21`, the “% Inhibition” value is -23% and the Z score is listed as 2.34.

With `COCc1cc(CNc2ccc(Cl)cn2)no1`, the “% Inhibition” value is listed as -5% and the Z score was 0.74.

Take `COC1(C(=O)Nc2cccc3c2CCO3)CCOCC1`: the “% Inhibition” value is -12% and the Z score is given as 1.88.

As for `CC(C)c1ocnc1C(=O)N[C@@H](C)c1nc(-c2ccncc2)cs1`, the “% Inhibition” value is listed as -10% and the Z score turned out to be 1.44.

For the compound `Cc1cc(N2CCC(CNC(=O)c3scnc3C)CC2)c2ccccc2n1`, the “% Inhibition” value was determined as 1% and the Z score is reported as -0.21.

Consider `CCc1nnc(NC(=O)Cn2nc(C)cc2C)s1`, for which the “% Inhibition” value is 2% and the Z score was -0.27.

For the compound `CO[C@@H](CC(C)C)CS(=O)(=O)N(C)c1ccn(C)n1`, the “% Inhibition” value is given as -13% and the Z score stood at 1.26.

With `CCc1cc(N(C)Cc2ncc(Br)cn2)nc(C)n1`, the “% Inhibition” value is listed as -4% and the Z score was 0.68.

With `Cc1ccc(C(=O)N2CCC(COc3ccc(C(=O)N4CCOCC4)cc3)CC2)s1`, the “% Inhibition” value was determined as 1% and the Z score is on record as -0.19.

Take `COC[C@H]1CC[C@H]1NC(=O)c1oc(CO)cc1C`: the “% Inhibition” value came out at 0% and the Z score was -0.04.

On to `O=C(N[C@@H]1C[C@H]2OCC[C@@H]12)c1ccon1`, for which the “% Inhibition” value is reported as -5% and the Z score was 0.47.

In the case of `COc1c(C(=O)Nc2cccc(F)c2)oc2ccc(NC(=O)Cc3ccccc3C)cc12`, the “% Inhibition” value stood at 0% and the Z score is -0.04.

On to `CN(Cc1cccc(Cl)c1)Cc1cc(=O)n2ncnc2[nH]1`, for which the “% Inhibition” value was -9% and the Z score is recorded as 1.31.

For `COc1ccc(CNC(=O)c2cccc(Oc3cc(-c4ccc(F)cc4)ncn3)c2)c(OC)c1`, the “% Inhibition” value is on record as -5% and the Z score is on record as 0.67.

In the case of `COc1cccc(-c2cc(O)cc(CC[C@H]3CCCCN3)c2)n1`, the “% Inhibition” value is recorded as 80% and the Z score was -13.26.

With `Cc1ccccc1CNC(=O)N1CC[C@@](O)(C2CCOCC2)[C@H](C)C1`, the “% Inhibition” value is recorded as -15% and the Z score is on record as 1.99.

Turning to `Cc1ccc(S(=O)(=O)NCC2(N)CCC2)s1`, the “% Inhibition” value is -1% and the Z score is 0.17.

In the case of `CC(=O)N1CCN(c2cc(C3CC(O)C3)ncn2)CC1` (stereo unspecified), the “% Inhibition” value is -13% and the Z score is recorded as 1.75.

Consider `O=c1ccc(-c2ccccc2)nn1Cc1coc(-c2ccc(Br)cc2)n1`, for which the “% Inhibition” value is given as -43% and the Z score stood at 5.04.

For the compound `CC(=O)N1CCCCC1CC(=O)N1CCCCC1Cn1cc(C)cn1` (stereo unspecified), the “% Inhibition” value came to 9% and the Z score was -1.2.

With `COc1ccc(NC(=O)Cc2nnc(-c3ccc4ncccc4c3)o2)c(C)c1`, the “% Inhibition” value is reported as -12% and the Z score turned out to be 1.19.

With `CC(CCc1cccc(F)c1)C(=O)N1CCCC(CCC(=O)O)C1` (stereo unspecified), the “% Inhibition” value amounted to 2% and the Z score was -0.31.

As for `CCN1C(=O)C(=O)N(CN2CCc3cc(OC)c(OC)cc3[C@@H]2c2ccccc2)C1=O`, the “% Inhibition” value is reported as -1% and the Z score is 0.23.

Consider `c1coc(CNc2nc(Nc3cccc4ccccc34)nc3ccccc23)c1`, for which the “% Inhibition” value was 40% and the Z score was -3.65.

As for `Cc1cnc(C(=O)N2CC[C@@]3(CCCN(CC4CCC4)C3=O)C2)cn1`, the “% Inhibition” value is recorded as -7% and the Z score was 0.67.

With `Cn1cc(Cl)cc1C(=O)N1C[C@@H]2CCC[C@H](C1)C(=O)N2`, the “% Inhibition” value was -3% and the Z score came to 0.53.

As for `CCc1n[nH]c(=O)c2cc(S(=O)(=O)Nc3ccc(C)cc3)cn12`, the “% Inhibition” value is 3% and the Z score is -0.39.

With `CCN(C(=O)Cn1c(=O)c(C#N)c2n(c1=O)CCC2)c1ccccc1C`, the “% Inhibition” value is listed as -18% and the Z score came to 3.42.

For `Cn1c(CN2CCCC2)nnc1C1CCN(C(=O)c2ccc(O)cc2)CC1`, the “% Inhibition” value was -9% and the Z score is listed as 1.31.

On to `CCC1(CC)CN(C(=O)[C@H]2CCN(CCOC)C2)CCO1`, for which the “% Inhibition” value was -10% and the Z score is listed as 2.04.

As for `COc1ccc(C(Nc2nc3ccccc3o2)[C@H]2C[C@H](O)C2)cn1` (stereo partly specified), the “% Inhibition” value was 2% and the Z score is -0.33.

In the case of `CCOC(=O)c1n[nH]cc1[C@@H]1CC(=O)Nc2c1cnn2Cc1cccnc1`, the “% Inhibition” value worked out at 0% and the Z score was -0.07.

On to `CCN(Cc1cnn(C)c1)S(=O)(=O)c1cc2c(cc1Cl)OCCO2`, for which the “% Inhibition” value is -6% and the Z score worked out at 0.69.

In the case of `O=C1[C@H]2Cc3ccccc3CN2C(=O)CN1CCc1ccccc1`, the “% Inhibition” value turned out to be 3% and the Z score was -0.56.

As to `CCN1C(=O)C[C@H](C(=O)NCc2ccc(C)o2)[C@H]1c1nccn1CC`, the “% Inhibition” value is -4% and the Z score was 0.78.

Consider `CC[C@H](O)Cn1nc(CCc2ccccc2)nc1CNC(C)=O`, for which the “% Inhibition” value was 7% and the Z score is listed as -0.93.

`CNC(=O)c1ccc(NC(=O)CCOC(C)C)c(Cl)c1`: the “% Inhibition” value is -1% and the Z score worked out at 0.1.

As to `Cn1nnnc1CN1CCCN(c2cccc(F)c2F)CC1`, the “% Inhibition” value is reported as -2% and the Z score turned out to be 0.35.

As to `CCc1ccnc(CNC(=O)N2CC(O)CC2c2cccc(F)c2)c1` (stereo unspecified), the “% Inhibition” value was determined as 1% and the Z score is reported as -0.14.

In the case of `CC(C)NC(=O)CNC(=O)C(=O)Nc1ccccc1O`, the “% Inhibition” value is listed as 3% and the Z score was -0.4.

Regarding `CCc1nc(C)c(CN2CCC(Oc3cc(OC)ccc3C(=O)NCCOC)CC2)[nH]1`, the “% Inhibition” value was -14% and the Z score turned out to be 2.68.

Regarding `CCCN1C(=O)[C@@H]2C(C(=O)Nc3cccc(Cl)c3)[C@@H]3C=C[C@]2(O3)C1C(=O)NC1CCCC(C)C1C` (stereo partly specified), the “% Inhibition” value is given as -14% and the Z score was found to be 2.21.

Turning to `CS(=O)(=O)N1C[C@H]2CCN(Cc3c(F)cccc3F)C[C@H]21`, the “% Inhibition” value was -12% and the Z score was found to be 1.63.

Values taken from ChEMBL document CHEMBL4888484, “Replenishing the malaria drug discovery pipeline: Screening and hit evaluation of the MMV Hit Generation Library 1 (HGL1) against asexual blood stage Plasmodium falciparum ,using a nano luciferase reporter read-out” (2022).
